The values that follow come from article PMC5836133.

The other results are listed elsewhere or left out. At the low end of the ranking the order means little.

This test has as its system T1, GST-NbGlk1(82-244).
T1 sequence: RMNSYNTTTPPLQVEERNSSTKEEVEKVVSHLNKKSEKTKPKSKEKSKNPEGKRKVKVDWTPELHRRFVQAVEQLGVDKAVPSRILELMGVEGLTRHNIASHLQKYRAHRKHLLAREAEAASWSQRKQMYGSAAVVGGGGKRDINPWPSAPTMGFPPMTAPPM
Put plainly: protein-binding microarray.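 Further: rank-based score ranging −0.5 to +0.5 with E above 0.45 taken as significant binding.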 The settings on record: NbGlk1 is a Golden2-like transcription factor of Nicotiana benthamiana; high values mean tight binding; most listed sequences are background and not binding sites; double strand, one strand shown.
ATCAGGTA gave a binding signal of 0.221 E-score. Consider CAACAGTA, for which the binding signal is -0.042 E-score. Then AACGTGGG, with -0.0371 E-score; and ACATCTCT, with 0.105 E-score.

Take CACTGCGC: the binding signal is 0.0543 E-score. Then AAGAGTGA, with -0.0802 E-score; and AACGTAAC, with 0.0817 E-score; and AAATTAGG, with 0.0772 E-score. ATCGTACC showed a binding signal of 0.0685 E-score. CACGAGGG registered a binding signal of -0.097 E-score. In turn, ATGTGCTG came in with a binding signal of -0.0549 E-score.

In turn, AGTTGTTG displayed a binding signal of 0.0124 E-score. With ATAACGTG, the binding signal was determined as 0.0555 E-score. AACGAACA registered a binding signal of -0.119 E-score.

As to ATTATATG, the binding signal was 0.144 E-score. Sequence AATGAATG registered a binding signal of -0.0176 E-score. Then ATACCAAA, with 0.106 E-score; and CACCCTTC, with -0.185 E-score. ACCTCGCG gave a binding signal of -0.185 E-score. Then ATAAGCAA, with 0.091 E-score; and ACGTATGA, with -0.0364 E-score. For CAAAGATC, the binding signal came out at 0.308 E-score.

The sequence AATGGAGA had a binding signal of 0.00542 E-score. Take CACCGCAA: the binding signal amounted to 0.00416 E-score. Under ACAGAGCC stands -0.222 E-score. AGGCAACG showed a binding signal of -0.152 E-score. Then ACTGCCTA, with -0.118 E-score; and AGGCAGAA, with -0.0935 E-score; and AATCCTAT, with 0.376 E-score.

As to ACCGTGCT, the binding signal is -0.0444 E-score. With AAGCAATG, the binding signal is -0.0539 E-score.

On to AAATATGG, for which the binding signal amounted to 0.272 E-score. Under ACGAGGCT stands -0.164 E-score; under AGCCGCCG, -0.377 E-score; under ACGTACTA, 0.0425 E-score. Then AATATGAC, with 0.0698 E-score; and AAAAAAAG, with -0.0295 E-score; and ATCATTCG, with 0.175 E-score. Turning to ACAATACG, the binding signal was 0.121 E-score. Under AAGCCGTG stands -0.206 E-score; under AATACTTC, 0.0798 E-score. For CAATGAAA, the binding signal came to 0.0318 E-score.

Take AGAGGGCC: the binding signal is -0.362 E-score. Under ACAGACAG stands -0.0566 E-score; under CAAATACC, 0.0266 E-score. Under ATTATAAG stands 0.253 E-score.

For the sequence AAGTCCAT, the binding signal was -0.227 E-score. For the sequence AGACAAAA, the binding signal was -0.0357 E-score. Consider CACCCAAA, for which the binding signal was -0.0526 E-score.

As to ACATAGCC, the binding signal was -0.182 E-score. Under ATGATGTG stands -0.00627 E-score.

ATGAATGG had a binding signal of 0.0261 E-score. On to AGCTCCAA, for which the binding signal is -0.164 E-score. For AGGCCTCG, the binding signal was -0.282 E-score. Then CAAGCGGA, with -0.0976 E-score; and AATGTTTC, with 0.0873 E-score; and AAGCGCGG, with -0.101 E-score.

ATCCTACC displayed a binding signal of 0.175 E-score. Regarding ATTCCGGC, the binding signal was 0.0706 E-score. Consider AGCCCACT, for which the binding signal is -0.338 E-score. For ACTTGTTA, the binding signal is -0.102 E-score.

Regarding AAGACAAT, the binding signal stood at 0.149 E-score. In the case of AGGAAATA, the binding signal was 0.239 E-score. The sequence AGGAATGA registered a binding signal of -0.135 E-score.

Sequence ACAAGAAG displayed a binding signal of -0.14 E-score. Under AGTACACA stands -0.104 E-score; under AGCCCCTA, -0.191 E-score; under AACGCGTC, -0.0544 E-score. Under AACTGATG stands -0.0439 E-score; under ACTACGCA, 0.00534 E-score; under AAGACCCC, -0.262 E-score. Then AGCGCTCG, with -0.19 E-score; and AGCGAGGC, with -0.173 E-score.

Consider AGATTTAA, for which the binding signal turned out to be 0.269 E-score.

In the case of AGGTCCAT, the binding signal was -0.262 E-score.

ACTAGGCT returned a binding signal of -0.14 E-score. Consider ATCCCCAT, for which the binding signal was found to be 0.277 E-score. Under AGTTGCAG stands -0.0444 E-score. As to CAAGAGCA, the binding signal was -0.119 E-score.

With AAGAAATT, the binding signal stood at 0.14 E-score.

For the sequence AAAGAGCC, the binding signal was -0.233 E-score. On to AATCCGGT, for which the binding signal worked out at 0.393 E-score.

As to AAGGGAGA, the binding signal was -0.111 E-score. ACTGCGTG: the binding signal was -0.236 E-score.

As for AGTTTAAG, the binding signal is -0.0011 E-score. Then AGATCTGG, with 0.364 E-score; and AATCGAGC, with 0.207 E-score; and AGGGAACG, with -0.298 E-score. Then ATCGACAG, with 0.111 E-score; and ACCGGCCG, with -0.12 E-score. For the sequence ACTTTGAC, the binding signal is -0.167 E-score. In the case of ACCGGTCA, the binding signal is -0.0022 E-score.

Consider AACGTTAC, for which the binding signal came out at 0.0277 E-score. Then ACCTTTCC, with -0.156 E-score. Then AAACGCAT, with -0.0117 E-score. Under AAACGGGG stands -0.0781 E-score; under AAACTGTT, -0.0414 E-score; under ACGCCGCC, -0.2 E-score. With AGCATCGC, the binding signal is -0.0537 E-score.

Take AGGAGTTA: the binding signal is -0.0403 E-score. Under ACGTCAGA stands -0.0329 E-score; under ACGAGACA, -0.112 E-score; under ATATTATA, 0.279 E-score.

Sequence ATATAGCG displayed a binding signal of 0.0922 E-score.

Sequence ACTACTGG returned a binding signal of 0.0332 E-score. Under CACTGGAA stands -0.136 E-score; under ACTCAATG, 0.0234 E-score; under ACTCTATA, 0.0537 E-score.

Take CAATCAAA: the binding signal was found to be 0.214 E-score. As to ATAACCGC, the binding signal is 0.0432 E-score. Consider AACTCTAA, for which the binding signal came out at 0.0558 E-score. In turn, ATTGGCTG returned a binding signal of 0.1 E-score. Sequence CAAACGTA gave a binding signal of -0.0229 E-score.

AGCCTCAT yielded a binding signal of -0.157 E-score. Then ACTCAAAG, with 0.00775 E-score; and CACAACGG, with -0.0812 E-score; and ATAGTCCC, with -0.203 E-score. Under ATTTCTCG stands 0.285 E-score; under CAACGGTC, -0.212 E-score; under AAAGTCTC, -0.141 E-score. For AAAAATGG, the binding signal amounted to 0.025 E-score.

As to AGGGCCGG, the binding signal is -0.296 E-score.

On to ACAATACA, for which the binding signal worked out at 0.137 E-score. Take AATGTCAC: the binding signal is 0.0237 E-score. Under CAAGGGGC stands -0.383 E-score; under AATGACCG, 0.00479 E-score.

Regarding AAGTAGAT, the binding signal is 0.216 E-score.

ATGGCCAG came in with a binding signal of -0.314 E-score. ACGAACCC returned a binding signal of -0.183 E-score. AACAACTT gave a binding signal of 0.0226 E-score. Then CAACTACG, with 0.0364 E-score. Then ACTAAGCA, with 0.0408 E-score; and AACGCGTA, with -0.0303 E-score; and AAGTTGAA, with -0.00901 E-score. As for AGGATGGG, the binding signal was -0.179 E-score.

In turn, AACGTATG yielded a binding signal of -0.0497 E-score. Then ATGAAGTC, with -0.179 E-score; and ACATAGGA, with 0.0936 E-score; and AACCCGGC, with -0.178 E-score. Sequence ATGTTGCG returned a binding signal of 0.0547 E-score.

ATTTACAA: the binding signal worked out at 0.245 E-score. AGACGACT displayed a binding signal of -0.125 E-score. Consider ACATGTGC, for which the binding signal is -0.153 E-score. Then AAATGCGG, with -0.0601 E-score. ACAGGTAT came in with a binding signal of 0.186 E-score. In the case of CACACTGG, the binding signal was -0.23 E-score.

Turning to AAGGCGCG, the binding signal is -0.0769 E-score. Then ACTGGACT, with -0.194 E-score; and ATATTATC, with 0.207 E-score.

As to AGGGCGGG, the binding signal is -0.0186 E-score. Then ATGATACC, with 0.11 E-score; and ACTCTGAC, with -0.1 E-score. Consider AGCTAGAT, for which the binding signal worked out at 0.216 E-score. Under AAAATCGC stands 0.405 E-score; under AAAACCTG, -0.0801 E-score. Under AGCGTTGC stands -0.154 E-score; under ACTTTGGC, -0.0566 E-score; under CAACGTAC, -0.112 E-score. The sequence ATTTCCAC registered a binding signal of 0.327 E-score.

Take ACTTTTAA: the binding signal worked out at 0.0525 E-score. With CAATATGA, the binding signal is 0.165 E-score. Under ATTTTCTC stands 0.316 E-score; under ACCCACCC, -0.0267 E-score; under ATATGCGG, 0.114 E-score. ATCACAAG registered a binding signal of 0.134 E-score. Under ATGTTCCG stands -0.0664 E-score. Consider AGCTCCGG, for which the binding signal was -0.251 E-score. Then AATGAGAA, with 0.144 E-score. As for ACCATGCA, the binding signal is -0.108 E-score.

AGACCCGG gave a binding signal of -0.246 E-score. AGAGTAAT yielded a binding signal of 0.217 E-score. In turn, ACCCTACA registered a binding signal of -0.0787 E-score.
